Reference: paper PMC4336329 (PLoS ONE, 2015)
Hit rate of the full screen: of about 310,000 compounds, about 2,200 (0.71%) showed an effect of 50% or more. Effects have a minus sign here. The list shows a part of the results.

target: human ether-à-go-go-related gene (hERG) potassium channel (human, UniProt Q12809); experiment: primary screen, population patch clamp on CHO cells stably expressing hERG
Sequence (Q12809 whole entry, looked up): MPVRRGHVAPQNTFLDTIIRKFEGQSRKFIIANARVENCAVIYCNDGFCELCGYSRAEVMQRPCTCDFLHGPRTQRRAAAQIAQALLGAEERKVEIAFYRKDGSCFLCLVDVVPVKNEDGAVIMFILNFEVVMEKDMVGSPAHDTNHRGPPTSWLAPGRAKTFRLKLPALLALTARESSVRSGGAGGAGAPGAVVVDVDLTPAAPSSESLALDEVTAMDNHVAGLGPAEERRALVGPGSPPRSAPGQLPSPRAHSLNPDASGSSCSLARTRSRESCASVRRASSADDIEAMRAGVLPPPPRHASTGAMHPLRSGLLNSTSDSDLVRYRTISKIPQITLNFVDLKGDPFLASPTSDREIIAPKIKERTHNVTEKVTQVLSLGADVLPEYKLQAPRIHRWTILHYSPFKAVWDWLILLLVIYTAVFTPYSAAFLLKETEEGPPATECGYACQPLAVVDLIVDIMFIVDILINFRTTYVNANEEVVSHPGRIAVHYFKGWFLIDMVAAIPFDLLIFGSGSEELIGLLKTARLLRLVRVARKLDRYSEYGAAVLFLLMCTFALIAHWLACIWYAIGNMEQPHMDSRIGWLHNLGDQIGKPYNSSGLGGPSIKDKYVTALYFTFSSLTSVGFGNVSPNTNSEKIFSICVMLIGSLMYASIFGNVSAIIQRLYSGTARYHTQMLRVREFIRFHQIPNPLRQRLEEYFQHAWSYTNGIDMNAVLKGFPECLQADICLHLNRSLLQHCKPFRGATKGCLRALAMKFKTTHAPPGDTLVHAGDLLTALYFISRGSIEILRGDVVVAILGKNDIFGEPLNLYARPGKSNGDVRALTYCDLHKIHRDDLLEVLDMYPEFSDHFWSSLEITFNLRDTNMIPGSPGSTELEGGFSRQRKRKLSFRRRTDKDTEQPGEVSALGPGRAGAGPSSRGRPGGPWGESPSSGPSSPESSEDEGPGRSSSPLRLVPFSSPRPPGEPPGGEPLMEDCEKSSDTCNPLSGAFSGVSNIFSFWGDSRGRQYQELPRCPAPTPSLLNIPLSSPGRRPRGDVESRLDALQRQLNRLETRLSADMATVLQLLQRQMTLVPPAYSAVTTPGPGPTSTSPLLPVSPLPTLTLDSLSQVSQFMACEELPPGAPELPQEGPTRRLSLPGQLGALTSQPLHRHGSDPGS

Row | Compound | hERG current change (%, negative = inhibition) at 1uM [%]
1 | N#CC1=C(N)N(c2ccccc2)C2=C(C(=O)CCC2)C1c1cccs1 (centres unmarked) | -3.87
2 | COc1cccc(CN2CCC(C(=O)N3CCN(c4ccccc4F)CC3)CC2)c1OC.O=C(O)C(=O)O | 12.2
3 | C=CCSc1nc(C)c(Cc2cccc3ccccc23)c(=O)[nH]1 | 13.2
4 | O=C(O)c1ccc2oc(SCC(=O)N3CCCCC3)nc2c1 | -5.99
5 | O=C(C1=C[C@H](c2coc3ccccc3c2=O)C[C@H](OCc2ccc(CO)cc2)O1)N1CCN(Cc2ccc3c(c2)OCO3)CC1 | -12.8
6 | COc1ccccc1-n1cnc2cc(C(=O)NCc3ccco3)ccc21 | 2.55
7 | O=c1[nH]c(=O)n(Cc2ccccc2)c2c1CCC2 | 13.5
8 | O=C(C1CCN(CC2CCCCC2)CC1)N1CCCC1 | 11.8
9 | Cc1nnc(SCC(=O)N(CC(C)C)c2c(N)n(Cc3ccccc3)c(=O)[nH]c2=O)n1N | 10.6
10 | Cc1cc(C)nc(/N=C(\N)N2CCCCCC2)n1 | 6.3
11 | O=C(O)CCN1CC2([N+](=O)[O-])C=CC(=O)C([N+](=O)[O-])(C1)C2CC(=O)c1ccccc1 (centres unmarked) | 16.5
12 | C/C(=N\N=C\c1cccc(F)c1)c1nnn(-c2nonc2N)c1C | 3.97
13 | CC(C)Cn1c(N)c(C(=O)COC(=O)c2ccc(Cl)cc2)c(=O)n(C)c1=O | 8.51
14 | CC12C(=O)N(c3ccccn3)C(=O)C1C1C=CC2C1 (centres unmarked) | 13.5
15 | O=C(O)c1ccc2c(=O)[nH]c(CCl)nc2c1 | -5.77
16 | CSc1nccc(-c2nn(-c3ccc(C)cc3)ccc2=O)n1 | 0.262
17 | Cc1cc(C)n2nc(C(=O)OCC(=O)Nc3ccc4c(c3)OC(F)(F)O4)nc2n1 | -17.3
18 | O=C(CNc1ccc(F)cc1F)NC(=O)NCc1ccco1 | 6.96
19 | O=C(CCC(=O)N(CC(=O)NC1CCCCC1)Cc1ccc(F)cc1)Nc1nccs1 | 11
20 | CC(=O)c1ccc(OCc2ccc(C(=O)c3ccccc3)cc2)cc1 | 12
21 | CC(=O)c1cccc(NC(=O)c2sc(Cl)nc2C)c1 | 24.2
22 | O=C(COC(=O)CSc1ccccc1)NCCNC(=O)COC(=O)CSc1ccccc1 | 6.27

Row | Compound | hERG current change (%, negative = inhibition) at 1uM [%]
23 | COc1ccc(-c2nnc(SCCc3ccccc3)n2N)cc1 | 11.6
24 | CCN(CC(=O)Nc1c(F)cccc1F)C(=O)CC1CCCC1 | 3.06
25 | Cc1nc(C(C)N(C)Cc2nc(Cc3ccccc3F)no2)c(C)s1 (centres unmarked) | 4.48
26 | CS(=O)(=O)Nc1ccccc1C(=O)NC1CC2CCC1C2 (centres unmarked) | 3.55
27 | CC(=O)Oc1cccc(C(=O)Nc2ccccc2NC(=O)c2cccc(OC(C)=O)c2)c1 | 3.04
28 | COCc1nc2ccccc2n1Cc1cccc(C)c1 | 11.6
29 | CC12CCC(C)(c3nc4ccccc4nc31)C2(C)C | 10.6
30 | Cc1ccc(C(=O)N2CCN(CCNC(=O)C(=O)NC(C)C)CC2)cc1 | 7.95
31 | COc1ccc(/C=N\NC(=O)c2ccc(F)cc2)cc1COc1cc(F)ccc1[N+](=O)[O-] | 12.9
32 | O=C(CCc1nc(-c2ccccc2Cl)no1)NC1CCCC1 | 1.7
33 | CNC(=S)N/N=C/c1cc(C)n(-c2ccc(Cl)c(Cl)c2)c1C | 1.77
34 | Cc1ccc2c(c1)C1CN(C)CCC1N2C(=S)Nc1ccc(Cl)cc1Cl (centres unmarked) | -1.38
35 | CC(C)CN1CCN(CC#Cc2ccccc2)CC1CCO (centres unmarked) | 9.33
36 | COc1ccc(OCc2nc3ccccc3[nH]2)cc1 | 12.6
37 | CCCCn1c(N)c(N(CC(C)C)C(=O)c2cccc(-n3cnnn3)c2)c(=O)[nH]c1=O | 9.97
38 | CCOC(=O)N1CCN(C(=O)C(=O)Nc2sc3c(c2C#N)CC(C)(C)OC3)CC1 | 22.3
39 | c1ccc(-c2csc3ncnc(NCCN4CCOCC4)c23)cc1 | 1.35
40 | CCOc1cc(/C=C2\C(=O)NC(=O)N(C)C2=O)cc([N+](=O)[O-])c1O | 13.4
41 | CN1C(=O)c2ccc(C(=O)NCc3ccccc3)cc2C1=O | 9.41
42 | Fc1cccc(/C=N/Nc2ncnc3nc[nH]c23)c1 | 14.4
43 | COc1ccc(Cl)cc1S(=O)(=O)N1CCCC(C(=O)NCc2ccncc2)C1 (centres unmarked) | 2.57
44 | Cc1ccc(S(=O)(=O)Nc2nnc(C(C)(C)C)s2)cc1 | 18.6
